Experimental data from publication PMC4336329 (PLoS ONE, 2015).
Screen size: about 310,000 compounds; about 14,000 (4.5%) showed an effect of 50% or more. Effects have a minus sign here. The list shows a part of the results.

The compounds below were run against human ether-à-go-go-related gene (hERG) potassium channel (human, UniProt Q12809) (assay: primary screen, population patch clamp on CHO cells stably expressing hERG).
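Further: peak tail current of the secondary pulse compared with the same well before compound.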

Sequence of human ether-à-go-go-related gene (hERG) potassium channel (Q12809 whole entry, looked up): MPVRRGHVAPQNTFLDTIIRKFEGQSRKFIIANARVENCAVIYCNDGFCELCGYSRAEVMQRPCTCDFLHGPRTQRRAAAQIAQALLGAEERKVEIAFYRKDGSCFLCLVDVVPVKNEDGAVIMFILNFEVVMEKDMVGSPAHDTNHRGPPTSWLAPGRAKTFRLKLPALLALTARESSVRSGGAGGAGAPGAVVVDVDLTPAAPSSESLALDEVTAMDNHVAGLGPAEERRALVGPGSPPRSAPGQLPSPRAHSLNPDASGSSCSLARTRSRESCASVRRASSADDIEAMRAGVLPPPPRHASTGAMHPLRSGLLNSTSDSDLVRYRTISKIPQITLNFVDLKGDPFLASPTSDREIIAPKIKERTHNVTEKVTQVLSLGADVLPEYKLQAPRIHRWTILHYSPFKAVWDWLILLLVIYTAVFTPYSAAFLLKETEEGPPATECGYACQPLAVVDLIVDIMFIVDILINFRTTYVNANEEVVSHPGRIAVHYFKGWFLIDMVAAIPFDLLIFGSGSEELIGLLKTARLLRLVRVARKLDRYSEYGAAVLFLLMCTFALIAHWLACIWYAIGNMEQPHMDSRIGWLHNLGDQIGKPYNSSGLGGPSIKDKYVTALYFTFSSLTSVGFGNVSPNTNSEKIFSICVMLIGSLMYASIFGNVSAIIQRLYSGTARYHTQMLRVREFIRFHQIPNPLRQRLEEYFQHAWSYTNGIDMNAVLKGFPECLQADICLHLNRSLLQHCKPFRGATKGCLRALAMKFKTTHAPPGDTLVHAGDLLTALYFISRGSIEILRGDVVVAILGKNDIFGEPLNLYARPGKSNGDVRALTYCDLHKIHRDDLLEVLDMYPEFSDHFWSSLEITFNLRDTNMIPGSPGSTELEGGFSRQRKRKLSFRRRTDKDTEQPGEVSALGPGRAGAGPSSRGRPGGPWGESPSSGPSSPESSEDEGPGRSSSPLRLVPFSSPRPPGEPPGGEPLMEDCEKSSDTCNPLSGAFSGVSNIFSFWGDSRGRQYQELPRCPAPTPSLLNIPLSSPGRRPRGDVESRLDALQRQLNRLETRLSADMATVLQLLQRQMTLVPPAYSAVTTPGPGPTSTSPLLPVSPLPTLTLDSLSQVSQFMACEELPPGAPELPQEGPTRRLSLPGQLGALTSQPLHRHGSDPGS

Going from `O=C(NC1CCCCC1)n1c(=O)oc2cc(S(=O)(=O)N3CCCCC3)ccc21` to `O=C(CCCN1C(=O)c2ccccc2C1=O)Nc1ccc(S(=O)(=O)N2CCCCC2)cc1`, the “hERG current change (%, negative = inhibition) at 10uM” value falls from 2.1% to -28.8%.

Compared with `CC(=O)N1CCN(C(=O)C(Cc2ccccc2)NC(=O)c2ccccc2)CC1` (stereo not shown), `Cc1ccc(C)c(S(=O)(=O)N2CCN(C(=O)CNC(=O)c3ccc4ccccc4c3)CC2)c1` is lower in “hERG current change (%, negative = inhibition) at 10uM” value: 1.89% for the first, -28.1% for the second.

First: CC(=O)c1cccc(NC(=O)c2ccc3c(Cl)c4c(nc3c2)CCCC4)c1
Second: Cc1cc(NC(=O)C2CCCCC2C(=O)O)ccc1NC(=O)c1ccccc1 (stereo not shown)
The “hERG current change (%, negative = inhibition) at 10uM” value of the first is lower: -9.9% for the first, -5.66% for the second.

Compared with `O=C(CCn1cnc2ccccc21)N/N=C/C=C/c1ccccc1`, `Brc1ccccc1OCCNCc1ccccc1.O=C(O)C(=O)O` is higher in “hERG current change (%, negative = inhibition) at 10uM” value: -41.5% for the first, -29.8% for the second.

First: Cc1nn(C)c(C(=O)N/N=C/c2ccc(C(F)(F)F)cc2)c1[N+](=O)[O-]
Second: CC(C)(C)c1ccc(/C=N/NC(=O)C[n+]2ccccc2)cc1.[Cl-]
The “hERG current change (%, negative = inhibition) at 10uM” value of the first is lower: -1.99% for the first, 26% for the second.

Going from `NS(=O)(=O)c1ccc(CCNC(=O)Cc2ccc(S(=O)(=O)N3CCOCC3)s2)cc1` to `COCCNC(=O)c1cc(S(=O)(=O)N2CCOCC2)ccc1SCc1cccc(OC)c1OC`, the “hERG current change (%, negative = inhibition) at 10uM” value falls from 8.51% to -18.6%.

Compared with `CCN(C(=O)/C=C/c1ccccc1)C1CCCCC1`, `CN1C(CC(O)c2ccccc2)CCCC1CC(O)c1ccccc1.Cl` (stereo not shown) is lower in “hERG current change (%, negative = inhibition) at 10uM” value: 11.2% for the first, -67.8% for the second.

First: COc1ccc(N(CC(=O)NC(C)(C)C)C(=O)CCC(=O)Nc2nccs2)c(OC)c1
Second: COc1nc(Oc2ccc(C(=O)OCC(N)=O)cc2)nc(N(C)C)n1
The “hERG current change (%, negative = inhibition) at 10uM” value of the first is higher: 18.7% for the first, 8.74% for the second.

Compared with `COC(=O)C1Sc2[nH]c(=O)sc2C(c2ccc(Cl)cc2)C1C(=O)OC` (stereo not shown), `Nc1nc(SCC(=O)N2CCN(S(=O)(=O)c3ccc(Cl)cc3)CC2)n[nH]1` is higher in “hERG current change (%, negative = inhibition) at 10uM” value: -67% for the first, 25.9% for the second.

Going from `Cc1cc([N+](=O)[O-])nn1CC(=O)N1N=C(C(F)F)CC1(O)C(F)F` (stereo not shown) to `Cc1ccc(Cl)cc1N1CCN(C(=O)COc2ccc3c(c2)CCC3)CC1`, the “hERG current change (%, negative = inhibition) at 10uM” value rises from 14.7% to 17.2%.

First: CC12COC3(C(N)=O)CC1CCC32C (stereo not shown)
Second: CC1(C)Cc2c(sc(NC(=O)c3ccc4c(c3)OCCO4)c2C(N)=O)C(C)(C)N1
The “hERG current change (%, negative = inhibition) at 10uM” value of the first is higher: 7.45% for the first, 2.61% for the second.

Going from `CC(C)c1ccc(C2C3=C(CC(C)(C)CC3=O)NC3=C2C(=O)c2ccccc23)cc1` (stereo not shown) to `CC1(C)OC(=O)C(=CNCCc2ccc(O)cc2)C(=O)O1`, the “hERG current change (%, negative = inhibition) at 10uM” value rises from 5.08% to 29.5%.

Going from `Cc1ccnc(N2CCC(C(=O)Nc3ccc4c(c3)CCC4)CC2)n1` to `COc1ccc(-n2nc3c(N4CCC(C(=O)N5CCCCCC5)CC4)nnc(C)c3c2C)cc1`, the “hERG current change (%, negative = inhibition) at 10uM” value falls from 16.1% to -53.7%.

First: COc1ccc(/C=C/c2ccccc2)cc1[C@H]1[C@H]2C=CC[C@@H](C)[C@@H]2C(=O)N1Cc1ccccc1
Second: CSc1nc(C)cc(/C=C\c2ccccc2)c1C#N
The “hERG current change (%, negative = inhibition) at 10uM” value of the first is higher: 17.3% for the first, 5.12% for the second.

First: Cc1ccccc1N1CCN(C2CCCN(C(=O)c3ccsc3)C2)CC1 (stereo not shown)
Second: Cc1ccc(NC2CCCN(C(=O)CCN3CCCCO3)C2)cc1C (stereo not shown)
The “hERG current change (%, negative = inhibition) at 10uM” value of the first is lower: -47.3% for the first, 2.4% for the second.

Compared with `Cc1ccc(NC(=O)CN(C)C(=O)c2cccc(S(=O)(=O)N3CCc4ccccc43)c2)cc1`, `CCCCN(C)S(=O)(=O)c1ccc(C(=O)N=c2sc3cc(NC(C)=O)ccc3n2C)cc1` is higher in “hERG current change (%, negative = inhibition) at 10uM” value: -15.6% for the first, 13.2% for the second.

Going from `COc1ccc2[nH]cc(C(=O)CCl)c2c1` to `COc1ccc(Cl)cc1NC(=S)NCCO`, the “hERG current change (%, negative = inhibition) at 10uM” value falls from 8.92% to 8.54%.

Going from `O=C1C2(CCCC13COC(c1ccc(O)cc1)OC3)COC(c1ccc(O)cc1)OC2` (stereo not shown) to `Cl.O=C(c1ccccc1)c1coc2ccc(O)c(CN3CCOCC3)c12`, the “hERG current change (%, negative = inhibition) at 10uM” value falls from 23.3% to -60.7%.

First: Cc1ccccc1Nc1c(-c2ccc(N3CCOCC3)cc2)nc2cnccn12
Second: O=C(c1cccnc1NCc1ccc(F)cc1)N1CCOCC1
The “hERG current change (%, negative = inhibition) at 10uM” value of the first is lower: -1.1% for the first, 3.95% for the second.

First: COc1ccc(N2CCN(CCS(=O)(=O)c3cc(Cl)ccc3Cl)CC2)cc1
Second: Cn1c(=O)[nH]c(=O)c2c1nc(NCCO)n2CCOc1ccccc1
The “hERG current change (%, negative = inhibition) at 10uM” value of the first is lower: -41.4% for the first, 17.3% for the second.

Going from `CC(=O)NC(Cc1c[nH]c2ccccc12)C(=O)OCC(=O)Nc1ccc2c(c1)OCO2` (stereo not shown) to `O=C(O)CCCn1c(O)c(C=C2N=c3ccccc3=N2)sc1=S`, the “hERG current change (%, negative = inhibition) at 10uM” value rises from 5.39% to 18.3%.

`Cc1ccc2nc(N3CCC(C(=O)N4CCC5(CC4)OCCO5)CC3)sc2c1` was tested, and the “hERG current change (%, negative = inhibition) at 10uM” value was -19.8%.
